For 167 variants, self-cleavage results are on record in the RNAGym collection of RNA variant scans (doi:10.1093/nar/gkz1192).

Read counts are not given, so values of variants with three or more changes are uncertain.

B1: CPEB3 Ribozyme (parent)
chain: UAACAGGGGGCCACAGCAGAAGCGUUCACGUCGCAGCCCCUGUCAGAUUCUGGUGAAUCUGCGAAUUCUGCUGUAUAUCUC

This series covers variants of B1. Kind of series: self-cleavage, relative activity (ratio to wild type); higher = more cleavage; in vitro, sequencing. In short, it runs like this:
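Libraries of CPEB3 self-cleaving ribozyme mutants came from rounds of error-prone PCR and carried barcodes, which DNA sequencing matched to variants. In vitro transcription used T7 RNA polymerase at 37°C for 5 hours, with a further 15 min in DNase I before EDTA stopped the reaction; the ribozymes cleaved during both steps. The RNA was reverse transcribed with template switching and sequenced on Illumina. Relative activity is the cleaved/total read fraction of a variant divided by that of the unmutated ribozyme, averaged over three batches with at least 5 reads.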
In the case of A15G U26C A64U U78C, the self-cleavage came to 0.19. As for A15G U51C U54C G61A G73A U74C U80C, the figure is 0.61. As for A15G U43C U51C C62A U69C U78C C81A, the figure is 0.22; as for A15G C23U U60C U67A, 0.09; as for A15G U69C A75G U78C, 0.13. As for A15G U31A C34A U60C U69C A77G, the figure is 0.17. Turning to A15G U41A A64G U66A, the self-cleavage was found to be 0.17. As for A15U A21G A77G U80C, the figure is 0.31; as for A15G G19A U31C U58C G73A, 0.06. For the variant A15G U25C A45G, the self-cleavage was found to be 0.43. As for A15U A28U U54C, the figure is 0.56; as for A15G U41C U66C U67C, 0.43. In the case of A15G C38U U69A, the self-cleavage stood at 0.55.

In the case of A15G U26A U66C, the self-cleavage came to 0.23. Then A15U U25A U31A, with 0.04; and A15G U41C A45U U60A U78C, with 0.92.

A15U C39U U48C C71G: the self-cleavage was found to be 0.04. Turning to A15G U41C U54C U67A, the self-cleavage was determined as 0.36. Then A15G U25C A45G A64G A75G, with 0.2; and A15U A28G C34U U43A G63A U69A, with 0.04; and A15G U54C A56G U66C, with 0.22. Then A15G G24C A45G, with 0.27.

Consider A15U A64G U66C U72C, for which the self-cleavage was determined as 0.2. Then A15G U25C C27A A75U, with 0.34; and A15U A21G C68G, with 0.17. Then A15G U31A U54C, with 0.24; and A15U G30A C34U U67C, with 0.07. Then A15U A35G G53U A64G U69C A77G, with 0.7.

As to A15U C37U U43A A45G, the self-cleavage came to 0.31. With A15U U26C A65U U80C, the self-cleavage is 0.22.

For the variant A15U U31A U51C U69C, the self-cleavage came to 0.14. As for A15G U26A C34G A35U, the figure is 0.27; as for A15G U49A C71G U78C, 0.09. As for A15U A18G U72A U78C, the figure is 0.41; as for A15G U25C U43G A47U U80C, 0.29; as for A15U A28G U72A A75C U78C, 0.59.

In the case of A15G U41C A47G, the self-cleavage came to 0.62. On to A15G A47G A56U C59U U80G, for which the self-cleavage came to 0.2.

On to A15U A21G G30A U31C U51C, for which the self-cleavage was 0.23.

For A15U A28C U49A U58A A65U, the self-cleavage came out at 0.08. Regarding A15U A18G U25C U58A U72A, the self-cleavage turned out to be 0.07.

Turning to A15U A56G U60C U67A A75C, the self-cleavage is 0.16. As for A15G C29U U43A U54C U80C, the figure is 0.25; as for A15G C23G U31A, 0.07. As for A15U C23A U31A, the figure is 0.2. As for A15U A18C U26A A64G U80A, the figure is 0.19; as for A15U A18G A56G A57U U80A, 0.23.

Regarding A15G U43C A56U U74A, the self-cleavage was 0.34.

For A15G U26A U41C A47G U67A U72C U80C, the self-cleavage was 0.41. As for A15G G30A U48C A64G U69A, the figure is 0.06; as for A15U A20G C62U U69A, 0.08. As for A15U G55U G70A, the figure is 0.2. As for A15G C34U U51A U74A, the figure is 0.22; as for A15G C34A U69C A77U, 0.13.

As for A15U G19U U58C U67C, the self-cleavage is 0.09. As for A15G C29U U31C U60C U67C U69A, the figure is 0.06.

A15G G19U A28U U31A A57U U58C U67A: the self-cleavage was found to be 0.07. As for A15U U25C G63U, the figure is 0.22. With A15U A35U U66C, the self-cleavage was determined as 0.27. For A15U A28G U31C, the self-cleavage is 0.48. As for A15G U26C A45C G70C, the self-cleavage stood at 0.2. Take A15G A75U U80C: the self-cleavage worked out at 1.01. As for A15G U43A A47G A64G, the figure is 0.67; as for A15G U26C U41C U60A, 0.06; as for A15U A57G A64G U69C, 0. As for A15G U26A A65G U66C A75G C81A, the figure is 0.28. Then A15G U51A U66A, with 0.31. On to A15U A28G A45C, for which the self-cleavage is 0.24. As for A15G U25C A47G U78A, the figure is 0.07; as for A15G U43C A56U U58A U66C, 0.08; as for A15G U26C C29U U74C, 0.37. Then A15G C27U U60A, with 0.24; and A15G U26C U69A, with 0.16.

As for A15G U26G A45G U58C, the self-cleavage was 0.17. As for A15U G30A A45U A77U, the figure is 0.08; as for A15G U43G U49C, 0.31; as for A15G A56U C59U, 0.11. Then A15G U25C A45G A47G, with 0; and A15G C40U U58C A65G U67C, with 0.06; and A15G A47G A64G, with 0.49. As for A15G U26A G55A, the figure is 0.51; as for A15G U25A A45U U66C U72C, 0.16; as for A15U A28G U41A U51A U58C, 0.12. On to A15U A20G U74C, for which the self-cleavage was found to be 0.57. Turning to A15G U48C U66C U69G, the self-cleavage turned out to be 0.55. Regarding A15G G52C U60C, the self-cleavage is 0.32. As for A15G C17G A20G A56U U78C, the figure is 0.08; as for A15U U26A A35U U41C G53C U72C, 0.23; as for A15U A18G A28G U80C, 0.26. For the variant A15U C23A U58G, the self-cleavage came out at 0.17.

Turning to A15U C50G U54C A64U U72A U78C, the self-cleavage worked out at 0.1. As for A15U C17U G24A U25C U51C, the figure is 0.38; as for A15G G16C G52C, 0.14. For the variant A15U C40U U43A U72A U80C, the self-cleavage amounted to 1. Then A15G G33U A35U A65G U78A, with 0.08.

As to A15U A57G A65U, the self-cleavage turned out to be 0.42. Then A15U A56U U69A A75G A77G, with 0.2; and A15G U26C A35U A45G U60C U69C, with 0.18. As for A15G U31A U49A, the figure is 0.27. Then A15U A21U U49C, with 0.31; and A15U C37A A64G, with 0.21. Regarding A15U A18G A35U U41C U43C U69C, the self-cleavage is 0.29. As for A15U U25A A35G U51C G61A, the figure is 0.11. Regarding A15G U26C G30A A65G U72C A77G, the self-cleavage was 0.1. As for A15G U60C U66C U80C, the figure is 0.16.

Regarding A15G C38U A65G U69C, the self-cleavage is 0.19.

For A15G C29A U41C U74C A77U, the self-cleavage was found to be 0.55. Then A15G U25C U26A A64G U78C C81G, with 0.22; and A15G U49A A56G, with 0.42; and A15U U31A U54A A56G A64G, with 0.14.

For the variant A15G G36A A65G, the self-cleavage came out at 0.13.

Regarding A15U C23U U26C U49C G63A A65G, the self-cleavage is 0.04. As for A15G U41C G63U U72C A75G, the figure is 1.27; as for A15G U41C U43A A56U, 0.23; as for A15U A18U U31C U54A A56G U58A, 0.11. As for A15U A18U A20C A28G, the figure is 0.28.

On to A15U A20G C39A U43C, for which the self-cleavage came out at 0.36.

In the case of A15U A20G A65U, the self-cleavage was 0.08. Then A15G C39U A47G U58C, with 0.92. Then A15G G24C A28G A45G U49C, with 0.35. As for A15U A57G U69A U80C, the figure is 0.61.

For A15G U41G U67C U69C U72C, the self-cleavage turned out to be 0.21. As to A15G G24C U31A U51C, the self-cleavage came to 0.06. As for A15U G42A U49C U78A, the figure is 0.14. As for A15U A21G U58C, the figure is 0.09.

A15G U43A U48C U80C: the self-cleavage was 0.7.

With A15G C38U A57U U69C, the self-cleavage worked out at 0.08.

On to A15U G55A A77G, for which the self-cleavage came out at 0.35. In the case of A15G U41A A47G A65G, the self-cleavage is 0.15.

As to A15U G42A U58C U80C, the self-cleavage amounted to 0.03.

With A15G C23U A28U U41G A45G, the self-cleavage was 0.08. Then A15U C32U U74C, with 0.12. As for A15G U26A A28G U51A U66C A75G, the figure is 0.07; as for A15U U31A A75U, 0.42; as for A15G G19A U60A U78C, 0.3. Then A15G U67A A77G C79A, with 0.51. As to A15U A56U U58A U72C, the self-cleavage is 0.11.

Consider A15G U26C C37U, for which the self-cleavage turned out to be 0.14. As for A15U C17A A35G C59U, the figure is 0.43.

A15G U49A A65U: the self-cleavage is 0.23.

As to A15G U26C A35U A65G, the self-cleavage is 0.21. Then A15G U41C A57G U67A, with 0.18; and A15G G36C U67C, with 0.16; and A15G C50U A64U, with 0.25. As for A15G A57G U58C U67C, the figure is 0.09.

In the case of A15U U26C U41A, the self-cleavage amounted to 0.15. On to A15U A20G U80A, for which the self-cleavage came out at 0.25.

A15U U26C A45U U60C: the self-cleavage came to 0.42. A15G A64U U78C: the self-cleavage was found to be 0.29.

For the variant A15G U25C A35U C39A, the self-cleavage was found to be 0.2.

Take A15U G30A C34U: the self-cleavage was 0.07. As for A15U U31C A35U A47G, the figure is 0.33; as for A15U A20G C40A A56G A64G A75U U78C, 0.06; as for A15U A21G U26C U43C U72C, 0.21. As for A15G A45U U67A, the self-cleavage was determined as 0.18. As for A15G A45U U49G U58A, the figure is 0.08; as for A15U C27A U31A U49C U58C A64U U74A, 0.02; as for A15U A56U A57G, 0.19.

For A15U U26A G42U U48A A57G U74C, the self-cleavage was determined as 0.17.

Turning to A15G U49A A75U U80C, the self-cleavage is 0.59.

With A15G C38G U43A, the self-cleavage was 0.19.

For the variant A15U C27U G63A, the self-cleavage was found to be 0.17. As for A15U A20G U54C U69A U74C U76A, the figure is 0.26; as for A15U U31A G55A, 0.26. Then A15G U67C U78C, with 0.16; and A15G U25C C29U, with 0.16. In the case of A15U C17U U31C U51A U69A, the self-cleavage came out at 0.09.
